Among all 280,000 compounds or so, about 1,100 (0.39%) were called active. This list was built around the results that the source calls inconclusive (neither active nor inactive); the mix of calls is not that of the screen. The call rests on the fitted dose curve; in most records, active means well fitted inhibition curve with a large enough effect; inconclusive means small, poorly fitted or top-dose-only effect, or effect the other way; inactive means flat fitted curve, though single readings scatter. No potency is given beside an inconclusive call; the fits are too rough.
target: Microtubule-associated protein tau (Homo sapiens) (UniProt P10636); test: qHTS for Inhibitors of Tau Fibril Formation, Fluorescence Polarization; settings: K18 P301L tau heparin fibrillization, Alexa594 FP, 6 h; series mostly up to 57.7 µM; further: nearly all actives have a fitted effect of over 55% in size
Method in brief: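 Steps: dispense K18 P301L tau (15 uM plus 0.24 uM Alexa 594 tracer, final) in pH 7 sodium acetate; add compound; add heparin (20 uM final); incubate 6 hr, 37 C; add ThT (30 uM final); after 1 hr ambient, read FP.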
Potency means the concentration at half of the fitted maximal effect; tags describe the fitted curve by direction and shape.

UniProt P10636, sequence (P10636 whole entry, looked up): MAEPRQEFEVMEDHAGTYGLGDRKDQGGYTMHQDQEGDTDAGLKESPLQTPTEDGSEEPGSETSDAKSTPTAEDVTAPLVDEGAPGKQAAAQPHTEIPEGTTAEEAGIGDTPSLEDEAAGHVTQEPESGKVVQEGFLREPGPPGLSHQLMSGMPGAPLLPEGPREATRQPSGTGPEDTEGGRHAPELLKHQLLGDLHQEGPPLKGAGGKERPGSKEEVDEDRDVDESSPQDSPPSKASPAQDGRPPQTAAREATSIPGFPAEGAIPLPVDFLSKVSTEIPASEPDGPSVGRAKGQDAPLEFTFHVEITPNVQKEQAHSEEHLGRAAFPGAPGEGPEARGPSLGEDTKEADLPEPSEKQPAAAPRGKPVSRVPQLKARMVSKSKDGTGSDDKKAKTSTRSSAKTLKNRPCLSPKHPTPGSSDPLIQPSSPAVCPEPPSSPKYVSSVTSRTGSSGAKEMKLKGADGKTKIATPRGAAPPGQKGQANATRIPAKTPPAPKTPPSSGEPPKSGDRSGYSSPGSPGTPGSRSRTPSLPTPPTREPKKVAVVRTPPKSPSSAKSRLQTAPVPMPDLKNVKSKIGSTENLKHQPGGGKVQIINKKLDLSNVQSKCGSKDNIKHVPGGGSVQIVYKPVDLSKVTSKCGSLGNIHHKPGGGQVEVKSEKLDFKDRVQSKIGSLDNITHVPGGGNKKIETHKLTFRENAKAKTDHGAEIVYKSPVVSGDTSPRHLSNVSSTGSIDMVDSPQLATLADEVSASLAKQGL

Structure (SMILES) | Potency
O=C(NC1CCCCCC1)C1CCN(C(=O)N2CCOc3ccccc32)CC1 | inconclusive [activator, full curve, poor fit]
COc1ccc(NC2CC(=O)N(c3cc([N+](=O)[O-])ccc3C)C2=O)cc1 (stereo unspecified) | inactive
Oc1ccccc1C(=S)N1CCCCCC1 | inconclusive [inhibitor, single point]
Cc1ccc(-c2nc3ccccn3c2Nc2ccc3c(c2)OCO3)cc1 | inconclusive [activator, full curve, poor fit]
Cc1ccc(-c2nnc(SCc3ccccc3C#N)o2)cc1 | inactive
Cc1ccc(CN2C(=O)C(O)(c3c[nH]c4ccccc34)c3cc(Cl)ccc32)cc1 (stereo unspecified) | inconclusive [inhibitor, partial curve]
C=CCOC(=O)C1=C(C)NC(SCC(=O)Nc2nccs2)=C(C#N)C1c1ccc(Cl)cc1 (stereo unspecified) | inconclusive [inhibitor, single point]
Cc1c(NS(=O)(=O)c2ccccc2)cc(C(C)C)c(O)c1S(=O)(=O)c1ccc(Cl)cc1 | inconclusive [inhibitor, full curve, poor fit]
CC1(C)CC(=O)c2cc3c(nc2C1)CC(C)(C)CC3=O | inactive
Cc1cc(C)c2cc(CNC3CCCC3)c(Cl)nc2c1 | inconclusive [inhibitor, full curve, poor fit]
COc1cccc(NC(=O)CSc2ncnc3c2oc2ccccc23)c1 | inconclusive [inhibitor, partial curve]
Cc1cc(=O)oc2ccc(OC(=O)CN3C(=O)c4cccc([N+](=O)[O-])c4C3=O)cc12 | inconclusive [inhibitor, single point]
CCCCCCC#CC1C=CC(OC(=O)OCC)C(COC(=O)OCC)O1 (stereo unspecified) | inconclusive [inhibitor, single point]
Cc1nn(-c2ccccc2)c2nc(C3CC3)cc(C(=O)Nc3ccccc3F)c12 | inconclusive [inhibitor, single point]
O=C(NCc1ccco1)c1ccc2c(c1)N(Cc1cccc(Cl)c1)C(=O)c1ccccc1S2(=O)=O | inconclusive [inhibitor, partial curve]
COc1ccc(CCNc2ncnc3c2cnn3-c2ccc(C)cc2)cc1 | inconclusive [inhibitor, partial curve]
CN1C(=O)c2ccccc2Sc2ccc(NC(=O)COc3ccc(F)cc3)cc21 | inconclusive [inhibitor, partial curve]
COc1ccc(CCNC(=O)c2ccc3c(c2)N(Cc2ccccc2F)C(=O)c2ccccc2S3(=O)=O)cc1OC | inconclusive [inhibitor, full curve, poor fit]
COc1cccc(C2C3=C(CC(C)(C)CC3=O)Nc3cc4c(cc32)OCO4)c1 (stereo unspecified) | inconclusive [activator, partial curve]
COc1ccc(-c2cc(C(=O)OCC(=O)NC(C)(C)C)c3ccccc3n2)cc1 | inconclusive [inhibitor, partial curve]
CC(C)OC(=O)c1cccc(NC(=O)c2ccccc2)c1 | inconclusive [inhibitor, single point]
O=C(CSc1nc(C2CC2)nc2ccccc12)N1c2ccccc2Sc2ccc(C(F)(F)F)cc21 | inactive

Structure (SMILES) | Potency
CCOC(=O)/C=C/C(=O)Nc1ccc(Oc2ccccc2)cc1 | inconclusive [inhibitor, single point]
O=C(CCN1N=C(c2ccccc2)CCC1=O)NCCc1ccc(Cl)cc1 | inactive
COCCN1C(=O)c2[nH]nc(-c3ccccc3O)c2C1c1ccc(Cl)c(Cl)c1 (stereo unspecified) | inactive
O=C(Nc1cccc(Oc2ccc3c(c2)C(=O)NC3=O)c1)c1ccco1 | inconclusive [inhibitor, partial curve]
O=c1[nH]c2ccccc2nc1/C=C/c1ccc(Cl)cc1 | inactive
Cc1cc(/C=C2/NC(=O)N(Cc3ccccc3F)C2=O)c(C)n1-c1ccccn1 | inactive
CCN(CC)c1cc(C)c2cc(NC(=O)c3ccccc3OC)ccc2n1 | inactive
O=C(O)CCC[C@H](O)\C=C/C=C/C=C/[C@H](O)C/C=C\CCCCCO | inactive
CCc1ccc(C(=O)c2cn(CC(=O)Nc3ccc(OC)c(OC)c3)c3ccc(C)cc3c2=O)cc1 | inactive
CCOC(=O)c1ccc(NC(=O)c2cn(-c3ccccc3)nc2-c2ccncc2)cc1 | active: 28.2 µM
CCOc1ccc(NC(=O)C(C)Oc2ccccc2C(=O)Nc2cccc(Cl)c2Cl)cc1 (stereo unspecified) | inconclusive [inhibitor, partial curve, poor fit]
COc1ccc(NC(=O)Nc2ccc(F)c(F)c2)c(OC)c1 | inconclusive [activator, partial curve]
Cc1cc(NC(=O)c2cccs2)cc(-c2nc3cc(Cl)ccc3o2)c1O | inconclusive [inhibitor, single point]
COc1ccc(N=C2SC(CC(=O)Nc3ccccc3)C(=O)N2Cc2ccco2)cc1 (stereo unspecified) | inconclusive [inhibitor, partial curve, poor fit]
CCCc1ccc(C2Sc3ccccc3NC3=C2C(=O)c2ccccc23)cc1 (stereo unspecified) | inconclusive [inhibitor, partial curve]
O=C(CSc1n[nH]c(-c2ccccc2Cl)n1)N1CCN(c2ccccc2)CC1 | inactive
Clc1cccc(-c2nc(NCC3CCCO3)c3ccccc3n2)c1 (stereo unspecified) | inconclusive [inhibitor, partial curve]
CCn1cc2nc(SCC(=O)Nc3ccc(C)cc3C)n(Cc3ccc(C)cc3)c(=O)c2n1 | inactive
O=C(O)CCCCCNS(=O)(=O)c1cccc2nsnc12 | inactive
O=C(c1ccc(F)cc1)c1cn(Cc2ccc(F)cc2)c2cc3c(cc2c1=O)OCCO3 | inconclusive [inhibitor, partial curve, poor fit]
C=CCCC(=O)Nc1nc(C)c(-c2csc(Nc3cccc(OC)c3)n2)s1 | inconclusive [activator, single point]
O=C(c1ccco1)[C@@H]1[C@@H]2C(=O)N(c3ccc(F)cc3)C(=O)[C@@H]2[C@H]2C=Cc3ccccc3N21 | inconclusive [inhibitor, partial curve, poor fit]

Structure (SMILES) | Potency
COc1ccc(C[C@H]2CN3C(=NC[C@@H]3Cc3ccc(O)cc3)N2CCNC(=O)c2ccc(C)c(Br)c2)cc1 | inactive
COc1ccc2cc(C(N)=O)c(=Nc3ccc(C)cc3)oc2c1 | inconclusive [inhibitor, single point]
Cc1ccc(/C=C2/C(=O)ON=C2c2ccccc2)o1 | inactive
CCN1CC=C2C(C#N)=C(N)C(C#N)(C#N)[C@H](c3cccc(OC)c3OC)[C@H]2C1 | inconclusive [inhibitor, partial curve, poor fit]
COC(=O)c1ccc(NS(=O)(=O)c2ccc(SC)cc2)cc1 | inconclusive [inhibitor, single point]
CCOCCCN1C(=O)CN(C2CCCCCC2)C(=O)C1c1ccc(OC)cc1 (stereo unspecified) | inconclusive [inhibitor, full curve, poor fit]
Cc1cccc(NC(=O)c2nc[nH]c2C(=O)N[C@@H](CCCCNC(=O)OC(C)(C)C)C(=O)OC(C)(C)C)c1 | inconclusive [inhibitor, full curve]
COc1cc(OC)c(NC(=O)c2ccco2)cc1Cl | inactive
O=C(Cn1c(=O)n(Cc2ccc3c(c2)OCO3)c(=O)c2oc3ccccc3c21)Nc1ccc(F)cc1 | inconclusive [inhibitor, partial curve]
O=C(Cn1cc(SCc2cccc(Cl)c2)c2ccccc21)N1CCCCCC1 | inactive
CC(=O)NC1C(OCCOc2ccc(Cl)cc2Cl)OC(COC(C)=O)C(OC(C)=O)C1OC(C)=O (stereo unspecified) | inconclusive [inhibitor, single point]
Cc1ccc(C(=O)CC2(O)C(=O)N(C)c3ccc(Br)cc32)c(C)c1 (stereo unspecified) | inconclusive [inhibitor, full curve, poor fit]
CC1(C)CCCC2(C)C3C(O)CC2(C)C(O)C31 (stereo unspecified) | inconclusive [inhibitor, full curve]
CCCCC1=CC2=C(OC(C)=O)C(=O)C(C)(OC(=O)c3ccco3)C(=O)C2=CO1 (stereo unspecified) | inconclusive [inhibitor, single point]
CCCn1nnc(NC(=S)NC(=O)C(C)(C)C)n1 | inactive
CC1CCCN(CCCOc2ccc([N+](=O)[O-])cc2)C1 (stereo unspecified) | inactive
CC(C)(C)c1ccc(-c2nc3cc(NC(=O)c4cccc(Br)c4)ccc3o2)cc1 | inconclusive [inhibitor, partial curve, poor fit]
COc1ccc(-n2ccn(CC(=O)NCCc3ccccc3)c(=O)c2=O)cc1OC | inactive
CCOC(=O)CC(NS(=O)(=O)c1ccc2[nH]c3c(c2c1)CCCC3)c1ccccc1Cl (stereo unspecified) | inactive
CC(=O)Nc1ccc(OC(=O)c2ccc(Br)c([N+](=O)[O-])c2)cc1 | inconclusive [inhibitor, partial curve]
CC(C)(C)SCCNC(=O)CN1C(=O)c2ccccc2S1(=O)=O | inconclusive [activator, single point]
S=C(NCCc1ccc(Cl)cc1)Nc1ccc(Cl)cc1Cl | inconclusive [inhibitor, partial curve]

— PubChem BioAssay AID1468 (National Center for Advancing Translational Sciences (NCATS), 2008)
